Reference: the supplement of paper PMC8728848
The list shows a part of the results.

Key:
Assay in all cases: glycan array binding signal (z-score within array); higher = stronger binding
Details in all cases: glycan notation: IUPAC condensed, linker removed
[1] = molecular target: Gal(b1-3)GlcNAc(b1-2)Man(a1-3)[Gal(b1-3)GlcNAc(b1-2)Man(a1-6)]Man(b1-4)GlcNAc(b1-4)[Fuc(a1-6)]GlcNAc
Method in brief: (§1)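 Negative Z-scores can be read as non-binding. The Z-score is calculated within each array and then averaged across arrays of one protein sequence at different concentrations or buffers and across linkers. Arrays, 3228 in all, were curated from the Consortium for Functional Glycomics database and kept only where the protein sequence was available.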

[2] = molecular target: Gal(b1-3)GlcNAc(b1-2)Man(a1-3)[GlcNAc(b1-4)][Gal(b1-3)GlcNAc(b1-2)Man(a1-6)]Man(b1-4)GlcNAc(b1-4)GlcNAc
Method in brief: as §1

[3] = molecular target: Gal(b1-3)GlcNAc(b1-2)[Gal(b1-3)GlcNAc(b1-6)]Man(a1-6)[Gal(b1-3)GlcNAc(b1-2)Man(a1-3)]Man(b1-4)GlcNAc(b1-4)GlcNAc
Method in brief: as §1

[4] = molecular target: Gal(b1-3)GlcNAc(b1-3)Gal(b1-3)GlcNAc
Method in brief: as §1

[5] = molecular target: Gal(b1-3)GlcNAc(b1-3)Gal(b1-4)Glc
Method in brief: as §1

[6] = molecular target: Gal(b1-3)GlcNAc(b1-3)Gal(b1-4)GlcNAc
Method in brief: as §1

[7] = molecular target: Gal(b1-3)GlcNAc(b1-3)Gal(b1-4)GlcNAc(b1-2)Man(a1-3)[Gal(b1-3)GlcNAc(b1-3)Gal(b1-4)GlcNAc(b1-2)Man(a1-6)]Man(b1-4)GlcNAc(b1-4)GlcNAc
Method in brief: as §1

[8] = molecular target: Gal(b1-3)GlcNAc(b1-3)Gal(b1-4)GlcNAc(b1-2)[Gal(b1-3)GlcNAc(b1-3)Gal(b1-4)GlcNAc(b1-6)]Man(a1-6)[Gal(b1-3)GlcNAc(b1-3)Gal(b1-4)GlcNAc(b1-2)Man(a1-3)]Man(b1-4)GlcNAc(b1-4)[Fuc(a1-6)]GlcNAc
Method in brief: as §1

[9] = molecular target: Gal(b1-3)GlcNAc(b1-3)Gal(b1-4)GlcNAc(b1-3)Gal(b1-4)GlcNAc(b1-2)[Gal(b1-3)GlcNAc(b1-3)Gal(b1-4)GlcNAc(b1-3)Gal(b1-4)GlcNAc(b1-6)]Man(a1-6)[Gal(b1-3)GlcNAc(b1-3)Gal(b1-4)GlcNAc(b1-3)Gal(b1-4)GlcNAc(b1-2)Man(a1-3)]Man(b1-4)GlcNAc(b1-4)[Fuc(a1-6)]GlcNAc
Method in brief: as §1

[10] = molecular target: Gal(b1-3)GlcNAc(b1-3)Gal(b1-4)GlcNAc(b1-6)[Gal(b1-3)GlcNAc(b1-3)]Gal(b1-4)Glc
Method in brief: as §1

[11] = molecular target: Gal(b1-3)GlcNAc(b1-3)Gal(b1-4)[Fuc(a1-3)]GlcNAc
Method in brief: as §1

[12] = molecular target: Gal(b1-3)GlcNAc(b1-3)Gal(b1-4)[Fuc(a1-3)]GlcNAc(b1-6)[Gal(b1-3)GlcNAc(b1-3)]Gal(b1-4)Glc
Method in brief: as §1

[13] = molecular target: Gal(b1-3)GlcNAc(b1-3)GalNAc
Method in brief: as §1

[14] = molecular target: Gal(b1-3)GlcNAc(b1-6)Gal(b1-4)GlcNAc
Method in brief: as §1

[15] = molecular target: Gal(b1-3)GlcNAc(b1-6)GalNAc
Method in brief: as §1

[16] = molecular target: Gal(b1-3)GlcNAc(b1-6)[Gal(b1-3)]GalNAc
Method in brief: as §1

Gal(b1-3)GlcNAc6S = molecular target: Gal(b1-3)GlcNAc6S
Method in brief: as §1

[17] = molecular target: Gal(b1-3)[Fuc(a1-4)]GlcNAc
Method in brief: as §1

[18] = molecular target: Gal(b1-3)[Fuc(a1-4)]GlcNAc(b1-2)Man
Method in brief: as §1

[19] = molecular target: Gal(b1-3)[Fuc(a1-4)]GlcNAc(b1-2)Man(a1-3)[Gal(b1-3)[Fuc(a1-4)]GlcNAc(b1-2)Man(a1-6)]Man(b1-4)GlcNAc(b1-4)[Fuc(a1-6)]GlcNAc
Method in brief: as §1

[20] = molecular target: Gal(b1-3)[Fuc(a1-4)]GlcNAc(b1-3)Gal(b1-3)[Fuc(a1-4)]GlcNAc
Method in brief: as §1

[21] = molecular target: Gal(b1-3)[Fuc(a1-4)]GlcNAc(b1-3)Gal(b1-4)[Fuc(a1-3)]GlcNAc
Method in brief: as §1

[22] = molecular target: Gal(b1-3)[Fuc(a1-4)]GlcNAc(b1-6)GalNAc
Method in brief: as §1

[23] = molecular target: Gal(b1-3)[GlcNAc(b1-6)]GalNAc
Method in brief: as §1

[24] = molecular target: Gal(b1-3)[Neu5Ac(a2-6)]GalNAc
Method in brief: as §1

[25] = molecular target: Gal(b1-3)[Neu5Ac(a2-6)]GlcNAc(b1-4)Gal(b1-4)Glc
Method in brief: as §1

[26] = molecular target: Gal(b1-3)[Neu5Ac(b2-6)]GalNAc
Method in brief: as §1

Gal(b1-4)Gal = molecular target: Gal(b1-4)Gal
Method in brief: as §1

[27] = molecular target: Gal(b1-4)GalNAc(a1-3)[Fuc(a1-2)]Gal(b1-4)GlcNAc
Method in brief: as §1

[28] = molecular target: Gal(b1-4)GalNAc(b1-3)[Fuc(a1-2)]Gal(b1-4)GlcNAc
Method in brief: as §1

Gal(b1-4)Glc = molecular target: Gal(b1-4)Glc
Method in brief: as §1

Gal(b1-4)Glc6S = molecular target: Gal(b1-4)Glc6S
Method in brief: as §1

Gal(b1-4)GlcNAc = molecular target: Gal(b1-4)GlcNAc
Method in brief: as §1

[29] = molecular target: Gal(b1-4)GlcNAc(a1-6)Gal(b1-4)GlcNAc
Method in brief: as §1

Gal(b1-4)GlcNAc(b1-2)Man = molecular target: Gal(b1-4)GlcNAc(b1-2)Man
Method in brief: as §1

[30] = molecular target: Gal(b1-4)GlcNAc(b1-2)Man(a1-3)Man(b1-4)GlcNAc(b1-4)GlcNAc
Method in brief: as §1

[31] = molecular target: Gal(b1-4)GlcNAc(b1-2)Man(a1-3)[Gal(b1-4)GlcNAc(b1-2)Man(a1-6)]Man(b1-4)GlcNAc(b1-4)GlcNAc
Method in brief: as §1

B1: GS13455A-bfa-343-25-343 (Bacteroides fragilis) (protein)
chain: KDEIQIVDQDTSWQMDNKYIEEDIREQLGIDPFTDLVYLGYYGNPYTQLEAINDLVNTTLVGKNELSFKVKVTKPYKEDIKVNLMKEDKLVTDFPEMAEGIPLFPSENCTFEGGVLKAGELETTVKLTLKDVEKLNNLSGYVMAIKLTMEGSHEHLAIARTRSSYFVKLNLSIRLDNIDSSNKKIEGKGFNKEISFKSDIRPDKLGSLNDGNFTANNWYTSNANNYLTIILPEKQSLKGFRLDTNTSPSGSYMLKSCRVMVETPDGNWVNHGVFDRKSMDGIAYISFKKPVECTKVRFENMMAFNGRFSVDVNEVTAFR
With B1 the “glycan array binding signal (z-score)” value [1] was -0.245, the “glycan array binding signal (z-score)” value [2] was -0.164 and the “glycan array binding signal (z-score)” value [3] was -0.302. The “glycan array binding signal (z-score)” value [4] was 0.175, the “glycan array binding signal (z-score)” value [5] was -0.08 and the “glycan array binding signal (z-score)” value [6] was -0.985. For the same binder, the “glycan array binding signal (z-score)” value [7] was -0.115, the “glycan array binding signal (z-score)” value [8] was -0.436 and the “glycan array binding signal (z-score)” value [9] was 0.279. The “glycan array binding signal (z-score)” value [10] was -0.531, the “glycan array binding signal (z-score)” value [11] was -0.093 and the “glycan array binding signal (z-score)” value [12] was -0.016. For the same binder, the “glycan array binding signal (z-score)” value [13] was -0.585, the “glycan array binding signal (z-score)” value [14] was -0.472 and the “glycan array binding signal (z-score)” value [15] was -0.419. For the same binder, the “glycan array binding signal (z-score)” value [16] was -0.057, the “glycan array binding signal (z-score)” value (Gal(b1-3)GlcNAc6S) was -1.03 and the “glycan array binding signal (z-score)” value [17] was -0.314. The “glycan array binding signal (z-score)” value [18] was -0.66, the “glycan array binding signal (z-score)” value [19] was 1.16 and the “glycan array binding signal (z-score)” value [20] was -0.691. For the same binder, the “glycan array binding signal (z-score)” value [21] was 0.241, the “glycan array binding signal (z-score)” value [22] was -0.551 and the “glycan array binding signal (z-score)” value [23] was -0.384. The “glycan array binding signal (z-score)” value [24] was -0.443, the “glycan array binding signal (z-score)” value [25] was 0.21 and the “glycan array binding signal (z-score)” value [26] was -0.532. The “glycan array binding signal (z-score)” value (Gal(b1-4)Gal) was 0.086, the “glycan array binding signal (z-score)” value [27] was -0.716 and the “glycan array binding signal (z-score)” value [28] was -0.366. The “glycan array binding signal (z-score)” value (Gal(b1-4)Glc) was 0.422, the “glycan array binding signal (z-score)” value (Gal(b1-4)Glc6S) was -0.264 and the “glycan array binding signal (z-score)” value (Gal(b1-4)GlcNAc) was -0.238. The “glycan array binding signal (z-score)” value [29] was -0.1, the “glycan array binding signal (z-score)” value (Gal(b1-4)GlcNAc(b1-2)Man) was -0.191 and the “glycan array binding signal (z-score)” value [30] was -0.425. The “glycan array binding signal (z-score)” value [31] was 0.049.
